Data on 69 compounds can be found in PubChem BioAssay AID1362 (SRMLSC, 2008).

This is one part of the list. Further columns of the screen follow, without active or inactive calls. The list favours compounds with an active or inconclusive main result.

Usually inhibition stands for the change of the read-out against control, counted positive when it falls.

The assay in a line: growth inhibition of WT strain, primary screen, mitochondrial fusion inhibitor project, WT and mutant strains, chemical genetic (AID 1362). Note: tested in S. cerevisiae. The settings on record: mitochondrial fusion phenotypic screen, at 10 µM.
With `CO/N=C(\c1nonc1N)N1CCN(c2ccc(Cl)cc2[N+](=O)[O-])CC1`, the inhibition is 34.6%. For `CC(C)(C)c1ccc(-c2n[nH]c(=S)n2C2CCCC2)cc1`, the inhibition was 50.4%. On to `C/C(=N\NC(=S)NCc1ccccc1)c1cccc(Br)c1`, for which the inhibition worked out at 66%. Then `c1ccc(-c2noc(-c3ccccc3-c3ccccc3)n2)cc1`, with 53.4%. Regarding `CCOC(=O)c1ccc(NC(=S)NCCc2ccccc2F)cc1`, the inhibition was 37.6%.

With `O=C(NCc1ccco1)c1cc2sccc2n1Cc1ccccc1`, the inhibition is 39.1%. As for `Cc1cc(NC(=S)N(Cc2cccc(Br)c2)CC2CCC(C(=O)O)CC2)ccc1Cl` (centres undefined), the inhibition is -0.1%.

As for `CCOC(=O)c1c(C)[nH]c(C2=NNC(=Nc3ccccc3)SC2)c1C`, the inhibition was determined as 17.1%. Then `Cc1ccc(NC(=O)CCC(=O)OCC(=O)c2ccc(Oc3ccc([N+](=O)[O-])cc3)cc2)cc1C`, with 8.88%; and `COc1ccc(C(CCNCc2ccccc2)c2ccc(F)cc2)cc1` (centres undefined), with 32.1%; and `CSc1nc(N2CCN(CCO)CC2)c2sc3nc(-c4ccco4)c4c(c3c2n1)CCC4`, with 83.6%.

`O=C1CC(N(CCc2ccccc2)C(=S)Nc2ccccc2)C(=O)N1c1ccccc1` (centres undefined): the inhibition was found to be 38.4%. Then `CCOc1ccc(-c2ccc(SC)nn2)cc1`, with 65.5%; and `O=C(Nc1ccc(Cl)cc1)NC1CCCCC1Cc1ccco1` (centres undefined), with 74.1%. Take `CCn1c(CSc2nc3ccccc3s2)nc2ccccc21`: the inhibition was 51.1%. For the compound `Cc1cccc(-c2n[nH]c(=S)n2Cc2ccccc2)c1`, the inhibition was 32.4%.

With `CC(C)C(NC(=O)c1ccc(C(C)(C)C)cc1)C(=O)NC1=NCCS1` (centres undefined), the inhibition was 20.8%. As to `COC(=O)Cc1ccc(N(Cc2ccccc2F)S(=O)(=O)c2ccc(Cl)cc2)cc1`, the inhibition amounted to 31.2%. Then `C=C(C)C1Cc2c(C)nn(-c3ccccn3)c2C1` (centres undefined), with 64.2%; and `Cc1ccc(C(=O)C(c2ccccc2)N2Cc3ccccc3C2=N)cc1` (centres undefined), with 59.2%.

In the case of `O=C(Oc1cccc(Nc2ncnc3ccccc23)c1)c1ccccc1Cl`, the inhibition was 41.8%. On to `COc1ccc(C(=O)C(CN2CCOCC2)c2ccccc2)cc1F` (centres undefined), for which the inhibition was 60.3%. For the compound `O=C(Cn1nc(-c2ccccc2Cl)ccc1=O)Nc1ccccc1-c1ccccc1`, the inhibition was found to be 18.3%. For the compound `Cc1[nH]n(C(C)(C)C)c(=O)c1Sc1ccc(Cl)cc1`, the inhibition stood at 52.6%.

Consider `O=c1oc(Nc2cccc(F)c2)nc2ccccc12`, for which the inhibition amounted to 0.46%. For `CC(=O)Nc1cccc(Oc2ncnc3scc(-c4ccc(C(C)C)cc4)c23)c1`, the inhibition was -10.2%. With `CCOc1ccc2c(c1)C(C)=CC(C)(C)N2S(=O)(=O)c1ccc(C)cc1`, the inhibition was 20.2%. For `CCn1cc(C(=O)NCCc2ccccc2)c(=O)c2cc(F)c(N3CCN(C)CC3)cc21`, the inhibition was -3.19%.

With `CN(c1ccccc1)C1CCCCC1NS(=O)(=O)c1ccc(Cl)cc1` (centres undefined), the inhibition turned out to be 35.2%. `O=C(Nc1ccc(N2CCCCC2)c(Cl)c1)c1ccc2c(c1)OCCO2`: the inhibition worked out at 36.6%. With `S=C1NCCc2ccc(Cl)cc2C1c1ccccc1Cl` (centres undefined), the inhibition came to 54.8%. As for `CC1CC(C)CN(C2CCN(Cc3cccnc3)CC2)C1` (centres undefined), the inhibition was -5.1%. For the compound `Nc1ccc2nc(CN3CCOCC3)[nH]c2c1`, the inhibition is -3.53%. Regarding `c1ccc(-c2ccc(-c3nc(-c4ccccn4)no3)cc2)cc1`, the inhibition is 75.2%. With `CC1CCCN(Cc2nc3c(c(=O)n(C)c(=O)n3C)n2CC(N)=O)C1` (centres undefined), the inhibition was determined as 97.5%.

Take `CCCCCCCCNC(C)C(O)c1ccc(SC(C)C)cc1` (centres undefined): the inhibition came out at 97.8%. As for `O=c1[nH][nH]c(-c2ccccc2)c1C=Nc1ccccc1`, the inhibition turned out to be 14.5%.

For the compound `CN(C(=O)c1cccc(COc2ccc(Cl)cc2Cl)c1)c1ccccc1`, the inhibition is 45.6%.

Take `CCN(CCNCC(O)COCc1ccc(Cl)cc1)c1cccc(C)c1` (centres undefined): the inhibition is 32.9%. On to `CC(c1cccs1)N(Cc1ccco1)C(=S)Nc1ccccc1Cl` (centres undefined), for which the inhibition was 23.5%. Then `COc1cc(OC)nc(Oc2ccccc2C(=O)Oc2ccccc2Cl)n1`, with 61.4%.

Turning to `CC1CCCC(NC(=S)NC(=O)c2ccccc2Br)C1C` (centres undefined), the inhibition was determined as 48.8%.

In the case of `CCOc1ccccc1NC(=S)NCCc1ccccc1`, the inhibition is 71.1%. In the case of `CCCCOc1ccc(C2C3CN(C(=O)OCC)CC=C3C(C#N)=C(N)C2(C#N)C#N)cc1OC` (centres undefined), the inhibition is 20.2%. With `O=C(c1ccc(C(=O)N2CCCc3ccccc32)s1)N1CCCc2ccccc21`, the inhibition was 90.8%. As for `CCC(C)n1c(=O)c(C(=O)Nc2ccccc2S(N)(=O)=O)c(O)c2ccccc21` (centres undefined), the inhibition worked out at 21%. Then `O=C(c1csc(Nc2ccccc2Cl)n1)N1CCCC1`, with -7.59%.

As for `COc1ccccc1N1CCN(C(=O)c2ccc(CSc3ccccc3)cc2)CC1`, the inhibition was -4.44%. For `COc1cc(Cl)c(C)cc1NC(C)C(=O)Nc1cc(C(F)(F)F)ccc1N1CCOCC1` (centres undefined), the inhibition worked out at 32.2%. Then `CCC(=O)N1CCN(c2ccccc2NC(=O)COc2cc(C)ccc2C(C)C)CC1`, with 14.2%.

With `O=C(CN1/C(=C(/O)c2ccccc2)C(=O)c2ccccc2S1(=O)=O)c1ccccc1`, the inhibition was 47.7%. In the case of `CCOC(=O)c1cnc2ccc(OCC)cc2c1N1CCN(c2ccccc2)CC1`, the inhibition was 39%. In the case of `Cc1cc(/C=N/n2cnnc2)c(C)n1-c1ccc(OCc2ccc(F)cc2)cc1`, the inhibition came out at 36.8%. Consider `CCC(C)c1ccc(NC(=S)NC2CCN(Cc3ccccc3)CC2)cc1` (centres undefined), for which the inhibition is 58.7%. Turning to `O=C(c1cccc(Cl)c1)N1CCCC(c2ccc(Cl)cc2)=N1`, the inhibition came to 59.1%.

Take `Cc1ccc(NC(=S)N/N=C/c2c(C)[nH]c3ccccc23)cc1`: the inhibition was found to be 92.6%. As for `COc1ccc(NC(=S)N2CCN(C(c3ccccc3)c3ccccc3)CC2)c(OC)c1`, the inhibition is 27.5%.

With `COc1ccc(NC(=S)NC2CCCCCC2)c(OC)c1`, the inhibition turned out to be 36%. For `N=C(N)SCc1cn(-c2ccccc2)nc1-c1ccc(Br)cc1`, the inhibition was found to be 76.5%. Take `Cc1ccc(-n2cc(CNCCc3cscn3)c(-c3ccc(F)cc3)n2)cc1`: the inhibition was 15.9%. With `COc1cc2c(cc1NC(=O)Nc1ccccc1)oc1ccccc12`, the inhibition worked out at 61.6%. Turning to `Cc1ccc(C(C)C)c(Oc2nnnn2-c2ccccc2)c1`, the inhibition is 34.5%. Then `CCOC(=O)C1CCC(CN(Cc2ccccc2)S(=O)(=O)c2ccc([N+](=O)[O-])cc2)CC1` (centres undefined), with 63.4%. Turning to `CC1CCCC(NC(=S)NC(=O)c2cncc(Br)c2)C1C` (centres undefined), the inhibition amounted to 54.6%. In the case of `O=C(Nc1nc(-c2cccs2)c(-c2cccs2)s1)C1CCCC1`, the inhibition was 28.2%. Next, `CC(=O)Cc1nsc(NC(=O)c2ccc(-c3cc(Cl)ccc3Cl)o2)n1`: -2.35%; `COc1cccc(Nc2nc(-c3sc(NC(=O)c4ccccc4)nc3C)cs2)c1`: 24.2%; `O=c1oc2cc(Oc3c([N+](=O)[O-])cc(C(F)(F)F)cc3[N+](=O)[O-])ccc2c2c1CCCC2`: 54%. Turning to `C=CCn1c(SCC(=O)Nc2cccc(C(=O)OC)c2)nnc1C(C)NC(=O)c1cccs1` (centres undefined), the inhibition stood at 1.01%.
